± gives the standard deviation of the averaged measurements. Laboratory Escherichia coli strains with one amino-acid change in an essential protein, pooled on minimal glucose agar with carbenicillin or gentamicin at twice the control MIC (plus kanamycin and chloramphenicol for the plasmids), 48 h. Fold change of barcode share against drug-free plates; higher = less susceptible. Active = above 20 in both replicates (the paper's putatively resistant). '<' = one read or none on drug, '>' = one read or none on a drug-free plate. Shares are relative, so most strains fall below 1 when a few take over. Listed are strains with at least 15 reads on both drug-free plates, and hits; most hits rest on fewer reference reads. Replicate rank correlation about 0.5. Edits are read from barcodes.
B1: murE F204Q (protein)
chain: MADRNLRDLLAPWVPDAPSRALREMTLDSRVAAAGDLFVAVVGHQADGRRYIPQAIAQGVAAIIAEAKDEATDGEIREMHGVPVIYLSQLNERLSALAGRFYHEPSDNLRLVGVTGTNGKTTTTQLLAQWSQLLGEISAVMGTVGNGLLGKVIPTENTTGSAVDVQHELAGLVDQGATFCAMEVSSHGLVQHRVAALKFAASVQTNLSRDHLDYHGDMEHYEAAKWLLYSEHHCGQAIINADDEVGRRWLAKLPDAVAVSMEDHINPNCHGRWLKATEVNYHDSGATIRFSSSWGDGEIESHLMGAFNVSNLLLALATLLALGYPLADLLKTAARLQPVCGRMEVFTAPGKPTVVVDYAHTPDALEKALQAARLHCAGKLWCVFGCGGDRDKGKRPLMGAIAEEFADVAVVTDDNPRTEEPRAIINDILAGMLDAGHAKVMEGRAEAVTCAVMQAKENDVVLVAGKGHEDYQIVGNQRLDYSDRVTVARLLGVIA
B2: murE V463A (protein)
chain: MADRNLRDLLAPWVPDAPSRALREMTLDSRVAAAGDLFVAVVGHQADGRRYIPQAIAQGVAAIIAEAKDEATDGEIREMHGVPVIYLSQLNERLSALAGRFYHEPSDNLRLVGVTGTNGKTTTTQLLAQWSQLLGEISAVMGTVGNGLLGKVIPTENTTGSAVDVQHELAGLVDQGATFCAMEVSSHGLVQHRVAALKFAASVFTNLSRDHLDYHGDMEHYEAAKWLLYSEHHCGQAIINADDEVGRRWLAKLPDAVAVSMEDHINPNCHGRWLKATEVNYHDSGATIRFSSSWGDGEIESHLMGAFNVSNLLLALATLLALGYPLADLLKTAARLQPVCGRMEVFTAPGKPTVVVDYAHTPDALEKALQAARLHCAGKLWCVFGCGGDRDKGKRPLMGAIAEEFADVAVVTDDNPRTEEPRAIINDILAGMLDAGHAKVMEGRAEAVTCAVMQAKENDVVLAAGKGHEDYQIVGNQRLDYSDRVTVARLLGVIA
B3: murE I64A (protein)
chain: MADRNLRDLLAPWVPDAPSRALREMTLDSRVAAAGDLFVAVVGHQADGRRYIPQAIAQGVAAIAAEAKDEATDGEIREMHGVPVIYLSQLNERLSALAGRFYHEPSDNLRLVGVTGTNGKTTTTQLLAQWSQLLGEISAVMGTVGNGLLGKVIPTENTTGSAVDVQHELAGLVDQGATFCAMEVSSHGLVQHRVAALKFAASVFTNLSRDHLDYHGDMEHYEAAKWLLYSEHHCGQAIINADDEVGRRWLAKLPDAVAVSMEDHINPNCHGRWLKATEVNYHDSGATIRFSSSWGDGEIESHLMGAFNVSNLLLALATLLALGYPLADLLKTAARLQPVCGRMEVFTAPGKPTVVVDYAHTPDALEKALQAARLHCAGKLWCVFGCGGDRDKGKRPLMGAIAEEFADVAVVTDDNPRTEEPRAIINDILAGMLDAGHAKVMEGRAEAVTCAVMQAKENDVVLVAGKGHEDYQIVGNQRLDYSDRVTVARLLGVIA
B4: murE I64W (protein)
chain: MADRNLRDLLAPWVPDAPSRALREMTLDSRVAAAGDLFVAVVGHQADGRRYIPQAIAQGVAAIWAEAKDEATDGEIREMHGVPVIYLSQLNERLSALAGRFYHEPSDNLRLVGVTGTNGKTTTTQLLAQWSQLLGEISAVMGTVGNGLLGKVIPTENTTGSAVDVQHELAGLVDQGATFCAMEVSSHGLVQHRVAALKFAASVFTNLSRDHLDYHGDMEHYEAAKWLLYSEHHCGQAIINADDEVGRRWLAKLPDAVAVSMEDHINPNCHGRWLKATEVNYHDSGATIRFSSSWGDGEIESHLMGAFNVSNLLLALATLLALGYPLADLLKTAARLQPVCGRMEVFTAPGKPTVVVDYAHTPDALEKALQAARLHCAGKLWCVFGCGGDRDKGKRPLMGAIAEEFADVAVVTDDNPRTEEPRAIINDILAGMLDAGHAKVMEGRAEAVTCAVMQAKENDVVLVAGKGHEDYQIVGNQRLDYSDRVTVARLLGVIA
B5: murE I64Q (protein)
chain: MADRNLRDLLAPWVPDAPSRALREMTLDSRVAAAGDLFVAVVGHQADGRRYIPQAIAQGVAAIQAEAKDEATDGEIREMHGVPVIYLSQLNERLSALAGRFYHEPSDNLRLVGVTGTNGKTTTTQLLAQWSQLLGEISAVMGTVGNGLLGKVIPTENTTGSAVDVQHELAGLVDQGATFCAMEVSSHGLVQHRVAALKFAASVFTNLSRDHLDYHGDMEHYEAAKWLLYSEHHCGQAIINADDEVGRRWLAKLPDAVAVSMEDHINPNCHGRWLKATEVNYHDSGATIRFSSSWGDGEIESHLMGAFNVSNLLLALATLLALGYPLADLLKTAARLQPVCGRMEVFTAPGKPTVVVDYAHTPDALEKALQAARLHCAGKLWCVFGCGGDRDKGKRPLMGAIAEEFADVAVVTDDNPRTEEPRAIINDILAGMLDAGHAKVMEGRAEAVTCAVMQAKENDVVLVAGKGHEDYQIVGNQRLDYSDRVTVARLLGVIA
B6: murE I64P (protein)
chain: MADRNLRDLLAPWVPDAPSRALREMTLDSRVAAAGDLFVAVVGHQADGRRYIPQAIAQGVAAIPAEAKDEATDGEIREMHGVPVIYLSQLNERLSALAGRFYHEPSDNLRLVGVTGTNGKTTTTQLLAQWSQLLGEISAVMGTVGNGLLGKVIPTENTTGSAVDVQHELAGLVDQGATFCAMEVSSHGLVQHRVAALKFAASVFTNLSRDHLDYHGDMEHYEAAKWLLYSEHHCGQAIINADDEVGRRWLAKLPDAVAVSMEDHINPNCHGRWLKATEVNYHDSGATIRFSSSWGDGEIESHLMGAFNVSNLLLALATLLALGYPLADLLKTAARLQPVCGRMEVFTAPGKPTVVVDYAHTPDALEKALQAARLHCAGKLWCVFGCGGDRDKGKRPLMGAIAEEFADVAVVTDDNPRTEEPRAIINDILAGMLDAGHAKVMEGRAEAVTCAVMQAKENDVVLVAGKGHEDYQIVGNQRLDYSDRVTVARLLGVIA
B7: murE M141Q (protein)
chain: MADRNLRDLLAPWVPDAPSRALREMTLDSRVAAAGDLFVAVVGHQADGRRYIPQAIAQGVAAIIAEAKDEATDGEIREMHGVPVIYLSQLNERLSALAGRFYHEPSDNLRLVGVTGTNGKTTTTQLLAQWSQLLGEISAVQGTVGNGLLGKVIPTENTTGSAVDVQHELAGLVDQGATFCAMEVSSHGLVQHRVAALKFAASVFTNLSRDHLDYHGDMEHYEAAKWLLYSEHHCGQAIINADDEVGRRWLAKLPDAVAVSMEDHINPNCHGRWLKATEVNYHDSGATIRFSSSWGDGEIESHLMGAFNVSNLLLALATLLALGYPLADLLKTAARLQPVCGRMEVFTAPGKPTVVVDYAHTPDALEKALQAARLHCAGKLWCVFGCGGDRDKGKRPLMGAIAEEFADVAVVTDDNPRTEEPRAIINDILAGMLDAGHAKVMEGRAEAVTCAVMQAKENDVVLVAGKGHEDYQIVGNQRLDYSDRVTVARLLGVIA
B8: murE V355A (protein)
chain: MADRNLRDLLAPWVPDAPSRALREMTLDSRVAAAGDLFVAVVGHQADGRRYIPQAIAQGVAAIIAEAKDEATDGEIREMHGVPVIYLSQLNERLSALAGRFYHEPSDNLRLVGVTGTNGKTTTTQLLAQWSQLLGEISAVMGTVGNGLLGKVIPTENTTGSAVDVQHELAGLVDQGATFCAMEVSSHGLVQHRVAALKFAASVFTNLSRDHLDYHGDMEHYEAAKWLLYSEHHCGQAIINADDEVGRRWLAKLPDAVAVSMEDHINPNCHGRWLKATEVNYHDSGATIRFSSSWGDGEIESHLMGAFNVSNLLLALATLLALGYPLADLLKTAARLQPVCGRMEVFTAPGKPTVAVDYAHTPDALEKALQAARLHCAGKLWCVFGCGGDRDKGKRPLMGAIAEEFADVAVVTDDNPRTEEPRAIINDILAGMLDAGHAKVMEGRAEAVTCAVMQAKENDVVLVAGKGHEDYQIVGNQRLDYSDRVTVARLLGVIA
B9: murE V356A (protein)
chain: MADRNLRDLLAPWVPDAPSRALREMTLDSRVAAAGDLFVAVVGHQADGRRYIPQAIAQGVAAIIAEAKDEATDGEIREMHGVPVIYLSQLNERLSALAGRFYHEPSDNLRLVGVTGTNGKTTTTQLLAQWSQLLGEISAVMGTVGNGLLGKVIPTENTTGSAVDVQHELAGLVDQGATFCAMEVSSHGLVQHRVAALKFAASVFTNLSRDHLDYHGDMEHYEAAKWLLYSEHHCGQAIINADDEVGRRWLAKLPDAVAVSMEDHINPNCHGRWLKATEVNYHDSGATIRFSSSWGDGEIESHLMGAFNVSNLLLALATLLALGYPLADLLKTAARLQPVCGRMEVFTAPGKPTVVADYAHTPDALEKALQAARLHCAGKLWCVFGCGGDRDKGKRPLMGAIAEEFADVAVVTDDNPRTEEPRAIINDILAGMLDAGHAKVMEGRAEAVTCAVMQAKENDVVLVAGKGHEDYQIVGNQRLDYSDRVTVARLLGVIA
B10: murE W381A (protein)
chain: MADRNLRDLLAPWVPDAPSRALREMTLDSRVAAAGDLFVAVVGHQADGRRYIPQAIAQGVAAIIAEAKDEATDGEIREMHGVPVIYLSQLNERLSALAGRFYHEPSDNLRLVGVTGTNGKTTTTQLLAQWSQLLGEISAVMGTVGNGLLGKVIPTENTTGSAVDVQHELAGLVDQGATFCAMEVSSHGLVQHRVAALKFAASVFTNLSRDHLDYHGDMEHYEAAKWLLYSEHHCGQAIINADDEVGRRWLAKLPDAVAVSMEDHINPNCHGRWLKATEVNYHDSGATIRFSSSWGDGEIESHLMGAFNVSNLLLALATLLALGYPLADLLKTAARLQPVCGRMEVFTAPGKPTVVVDYAHTPDALEKALQAARLHCAGKLACVFGCGGDRDKGKRPLMGAIAEEFADVAVVTDDNPRTEEPRAIINDILAGMLDAGHAKVMEGRAEAVTCAVMQAKENDVVLVAGKGHEDYQIVGNQRLDYSDRVTVARLLGVIA

Biological target: Escherichia coli (laboratory strain)
Assay: barcode share on antibiotic plates over drug-free plates; higher = less susceptible
Procedure: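 A pool of E. coli strains, each edited to carry one amino-acid change in an essential protein, was grown for 48 h on minimal glucose agar with or without antibiotic; strain barcodes were sequenced; mean of two replicates.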

[1] = antibiotic: carbenicillin, 2× MIC (3.1 µg/mL)
[2] = antibiotic: gentamicin, 2× MIC (MIC 0.45 µg/mL)

| Protein | fold change of barcode share [1] | fold change of barcode share [2] |
| --- | --- | --- |
| B1 | 0.129 ± 0.11 | < 0.0174 |
| B2 | 0.331 ± 0.24 | 0.00643 ± 0.0035 |
| B3 | 0.306 ± 0.063 | 0.0131 ± 0.012 |
| B4 | 0.526 ± 0.32 | < 0.0105 |
| B5 | 0.275 ± 0.055 | < 0.0108 |
| B6 | 0.0426 ± 0.036 | – |
| B7 | 0.203 ± 0.045 | 0.0244 ± 0.024 |
| B8 | 0.228 ± 0.16 | 0.00561 ± 0.00083 |
| B9 | 0.152 ± 0.051 | 0.00963 ± 0.011 |
| B10 | 0.132 ± 0.02 | 0.0151 ± 0.018 |

From the supplement of paper PMC11876631
